Source: PubChem BioAssay AID686970 (National Center for Advancing Translational Sciences (NCATS), 2013)
“And” between values parts separate entries of the source, which are not always exact repeats. Equal entries are not always repeated. Screen size: about 360,000 compounds; about 6,000 (1.7%) were called active. This list was built around the results that the source calls inconclusive (neither active nor inactive); the mix of calls is not that of the screen. Calls come from the whole dose curve; as a rule, active = well fitted cell-killing curve with a large enough effect; inconclusive = small, poorly fitted or top-dose-only effect, or effect the other way; inactive = flat fitted curve, though single readings scatter. Potencies beside an inconclusive call are fits to weak or partial responses and may not hold up.

Test: qHTS for induction of synthetic lethality in tumor cells producing 2HG: qHTS for the HT-1080-NT fibrosarcoma cell line;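 note: NT is the 2HG producing partner of a matched IDH1 knockdown line; nearly all actives have a fitted effect of over 55% in size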;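 for activity, negative = less viability: 0% = DMSO-treated cells and -100% = media-only wells without cells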
Settings: HT-1080-NT fibrosarcoma viability, CellTiter-Glo ATP luminescence, 48 h; activity, negative = less viability: at 46.1 µM (top of the series) unless noted
Procedure, shortened: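 HT-1080-NT fibrosarcoma cells (2HG-overproducing), 750 cells/well in RPMI with 5% FBS, dosed after 2 h and incubated 48 h at 37C. CellTiter-Glo luminescence normalized to DMSO and no-cell wells; concentration-response curves fitted and classed.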
Potency is the fitted concentration of half-maximal effect; tags give direction and shape of the fitted curve.

Compound	Potency	activity, negative = less viability
COc1ccc(CCNC(=O)c2ccccc2C(=O)NCCc2ccc(OC)c(OC)c2)cc1OC	inconclusive: 29.1 µM [rising, partial curve]	
CC(C)C1N=C(c2ccc3c(c2)OCO3)CC(c2ccccc2O)N1 (stereo unspecified)	inconclusive: 16.4 µM [cytotoxic, single point]	
CCOC(=O)C1=C(C)NC(C)=C(C(=O)OCC)C1/C=C/c1ccccc1	inconclusive: 35.5 µM [cytotoxic, single point]	
COc1ccc(Nc2nc(-c3ccc(OC)cc3)c(CCC(=O)O)s2)cc1		inactive: -0.0072%
COCc1c(C#N)c(NCc2cc(OC)c(OC)c(OC)c2)nc(C)c1[N+](=O)[O-]		inactive: -13.2%
COC(=O)c1cc(NC(=O)/C=C/c2ccc3c(c2)OCO3)cc(C(=O)OC)c1	inconclusive: 13 µM [cytotoxic, partial curve]	
S=c1[nH]nc(-c2ccc(Cl)cc2)n1CC1CCCO1 (stereo unspecified)	inconclusive: 35.5 µM [cytotoxic, single point]	
O=S(=O)(Nc1ccc(Cc2ccncc2)cc1)c1ccc(Br)s1	inconclusive: 29.1 µM [cytotoxic, single point]	
O=C1Nc2ccc(Br)cc2C1=C1CCCCC1	inconclusive: 23.1 µM [cytotoxic, single point]	
CCN1C(=O)[C@H]2[C@@H](c3ccc(C)cc3)N[C@]3(CCCN(Cc4ccc(C)cc4)C3=O)[C@H]2C1=O		inconclusive: -15.3% [cytotoxic]
O=C(c1cccs1)N1CCC(Cc2ccccc2)CC1		inactive: 7.12%
CCOC(=O)CNC(c1ccccc1)c1cc(Br)ccc1NC(C)=O (stereo unspecified)		inconclusive: -33.8% [cytotoxic]
CC(C)(C)C1=C(C#N)C(c2cccnc2)C(C#N)=C(N)O1 (stereo unspecified)		inactive: 8.31%
CC(C)(C)CC(C)(C)SSc1n[nH]c(=S)s1		inactive: 17.6%
COc1cc(-c2noc(C)c2-c2ccc3[nH]ccc3c2)cc(OC)c1OC	active: 1.03 µM	
CSCCC(C(=O)Nc1c(C)cccc1C)N(Cc1ccccc1)Cc1ccccc1 (stereo unspecified)	inconclusive: 29.1 µM [cytotoxic, single point]	
Cc1cc(C)cc(OCCNC(=O)c2cc(S(=O)(=O)N3CCOCC3)ccc2F)c1	inconclusive: 18.4 µM [cytotoxic, partial curve]	
Cc1cccc2cc(/C=N/NC(=O)[C@H]3C[C@@H]3c3ccccc3)c(Cl)nc12		inactive: -6.98%
O/N=C(\c1ccc(Cl)cc1)c1ncc(C(F)(F)F)cc1Cl	inconclusive: 18.4 µM [cytotoxic, single point]	
COc1cccc(S(=O)(=O)Nc2ccc3c(c2)[C@@H]2C[C@@H](CC(=O)NCc4ccc(Cl)cc4)O[C@@H](CO)[C@@H]2O3)c1	active: 8.2 µM	
OC(c1ccc(Cl)cc1)c1ncc(-c2cccc(F)c2)[nH]1 (stereo unspecified)	inconclusive: 29.1 µM [cytotoxic, single point]	
NCCCC(=O)N1c2ccccc2Sc2ccc(Cl)cc21	inconclusive: 16.4 µM [cytotoxic, single point]	

Compound	Potency	activity, negative = less viability
CCN(CC)S(=O)(=O)c1cc(NC(=O)C(C)N2CCc3ccccc32)ccc1C (stereo unspecified)	inconclusive: 9.2 µM [cytotoxic, partial curve]	
C[C@@]12C(=O)Nc3ccccc3C(=O)N1[C@H]1c3cc(Cl)ccc3OC[C@@H]1[C@@H]2c1ccccc1	inconclusive: 16.4 µM [cytotoxic, single point]	
Cc1ccc(NC(=O)COC(=O)c2ccc3c(c2)NC(=O)C2CCCN32)cc1 (stereo unspecified)	inconclusive: 22.4 µM [cytotoxic, single point]	
CCN(c1ccccc1)S(=O)(=O)c1ccc(N)c(OC)c1	inconclusive: 18.4 µM [cytotoxic, single point]	
Cc1cccc(NC(=O)NCCN2CCN(c3ccccc3)CC2)c1C		inactive: 13%
CCOc1c(Br)cc(CNC2CCCCCCC2)cc1OC		inactive: -14.5%
CN(C)CCCN1c2ccccc2Sc2ccccc21	inconclusive: 28.2 µM [cytotoxic, single point] and inconclusive: 29.1 µM [cytotoxic, single point]	
COc1cc2ccccc2cc1C(=O)N(CCN(C)C)c1nc2c(F)cccc2s1	inconclusive: 9.2 µM [cytotoxic, partial curve]	
Cc1cc(N/N=C/c2cccc(Cl)c2)nc(NCc2ccccc2)n1	inconclusive: 18.4 µM [cytotoxic, single point]	
COc1ccc(C(F)(F)F)cc1N/C=C/c1nnnn1-c1ccc2ccccc2c1		inactive: 6.24%
COc1ccc(N2CCN(C(=O)c3cn(Cc4ccccc4)nc3-c3cccnc3)CC2)cc1		inactive: 0.582%
COc1cc(Cl)ccc1OCc1cc(C(=O)NC2CCc3ccccc32)no1 (stereo unspecified)		inconclusive: -30.7% [cytotoxic]
COc1cc(-c2c(CCO)sc3ccccc23)cc(OC)c1OC	inconclusive: 11.6 µM [cytotoxic, partial curve]	
Cc1ccc(C(=O)N2CCC(C(=O)c3ccc(Cl)cc3)CC2)cc1	inconclusive: 29.1 µM [cytotoxic, single point]	
CCCCn1c2ccc(F)cc2c2nnc(SCCN3CCOCC3)nc21	inconclusive: 3.26 µM [cytotoxic, partial curve]	
COc1cccc(NC(=O)C2(C)CCN2Cc2ccc3ccccc3c2)c1 (stereo unspecified)	inconclusive: 29.1 µM [cytotoxic, single point]	
CC1(c2ccc(OC(F)F)cc2)NC(=O)N(CC(=O)Nc2ccc(OC(F)F)cc2)C1=O (stereo unspecified)	inconclusive: 16.4 µM [cytotoxic, single point]	
C[C@@H]1CC=C[C@H]2[C@H]1C(=O)N(Cc1ccccc1)[C@H]2c1ccc(F)c(-c2ccc(N(C)C)cc2)c1	inconclusive: 20.6 µM [cytotoxic, single point]	
CCN1CCN(C(=O)c2ccc(COc3cccc(Cl)c3)o2)CC1	inconclusive: 29.1 µM [cytotoxic, single point]	
c1ccc(-c2nnnc3ccccc23)cc1		inactive: 10.1%
Cc1ccc(-c2cc(=O)c3cc(C)ccc3[nH]2)cc1	inconclusive: 16.4 µM [cytotoxic, partial curve]	
COc1cccc(-n2nnnc2SCC(=O)Nc2ccc3c(c2)OCCO3)c1	active: 14.1 µM	

Compound	Potency	activity, negative = less viability
COc1ccc(C(=O)CC(Nc2ccc([N+](=O)[O-])cc2)c2ccc(Cl)cc2)cc1 (stereo unspecified)	inconclusive: 35.5 µM [cytotoxic, single point]	
COC(=O)c1c(NC(=S)Nc2ccccc2Cl)sc(C)c1C	inconclusive: 25.1 µM [cytotoxic, single point]	
COCc1cc(C)nc2sc3c(=O)n(-c4cccc5ccccc45)nnc3c12	inconclusive: 29.1 µM [cytotoxic, single point]	
CC(=NNC(=O)c1ccccc1N)c1ccccc1O	inconclusive: 5.17 µM [cytotoxic, partial curve]	
COc1cc(/C=N/Nc2ccc([N+](=O)[O-])cn2)cc(OC)c1O	inconclusive: 23.1 µM [cytotoxic, single point]	
COC(=O)[C@]12CCCCC=C1N(Cc1cccc3ccccc13)C(=O)[C@H](CC(=O)NCc1cccs1)C2	inconclusive: 16.4 µM [cytotoxic, single point]	
O=C(CC1SC(=Nc2ccc3c(c2)OCCO3)NC1=O)Nc1ccc(F)cc1F (stereo unspecified)	inconclusive: 29.1 µM [cytotoxic, single point]	
COc1ccc2cc(C3CC=C(CO)CN3S(=O)(=O)c3ccccc3[N+](=O)[O-])n(C(=O)OC(C)(C)C)c2c1 (stereo unspecified)	inconclusive: 18.4 µM [cytotoxic, single point]	
CC1CCCCN1CCNC(=O)c1ccc2c(c1)N(Cc1ccccc1)C(=O)c1ccccc1S2(=O)=O (stereo unspecified)	inconclusive: 23.1 µM [cytotoxic, single point]	
Cc1cccc(-n2ncc3c(NCc4cccs4)ncnc32)c1	inconclusive: 12.6 µM [cytotoxic, single point]	
N=c1c(S(=O)(=O)c2ccccc2)cc2c(=O)n3ccccc3nc2n1C1CCCCC1	inconclusive: 20.6 µM [cytotoxic, single point]	
O=C(N/N=C/c1ccc[nH]1)c1sc2ccccc2c1Cl	inconclusive: 25.1 µM [cytotoxic, single point]	
COc1cc(Cl)ccc1NC(=S)N(CCCN1CCOCC1)Cc1cn(C)c2ccccc12	inconclusive: 23.1 µM [cytotoxic, partial curve]	
C#Cc1cccc(Nc2nc(NCCOC)nc3ccsc23)c1	inconclusive: 29.1 µM [cytotoxic, single point]	
Cc1cc(C(=O)N/N=C(\CCC(=O)O)c2cccs2)c2ccccc2n1	inconclusive: 13 µM [cytotoxic, partial curve]	
COc1ccc(-c2csc3nc[nH]c(=O)c23)cc1OC		inactive: 4.74%
CCc1nc2c(OCc3ccc(F)c(F)c3)cccn2c1N(C)C(=O)c1ccc(OC)cc1		inactive: -2.28%
CN(C)C(=S)NC(=O)C12CC3CC(C)(CC(C)(C3)C1)C2		inactive: 3.71%
Fc1cccc(CN(C2=NCCN2)c2c(Cl)cccc2Cl)c1	inconclusive: 14.6 µM [cytotoxic, partial curve]	
Cc1sc2nc(-c3ccccn3)[nH]c(=O)c2c1-c1ccccc1	inconclusive: 18.4 µM [cytotoxic, single point]	
COc1cccc(Nc2nnc(SCC(=O)Nc3sccc3C(N)=O)s2)c1	inconclusive: 29.1 µM [cytotoxic, single point]	
CC1C/C(=C\c2cccnc2)C(=O)/C(=C/c2cccnc2)C1 (stereo unspecified)	inconclusive: 2.59 µM [cytotoxic, full curve]	
